# Results published in PMC4336329 (PLoS ONE, 2015).
# Among all 310,000 compounds or so, about 14,000 (4.5%) showed an effect of 50% or more. Effects have a minus sign here. The list shows a part of the results.
# Biological target: human ether-à-go-go-related gene (hERG) potassium channel (human, UniProt Q12809)
# Assay: primary screen, population patch clamp on CHO cells stably expressing hERG
# 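Further: peak tail current of the secondary pulse compared with the same well before compound.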
# Sequence of human ether-à-go-go-related gene (hERG) potassium channel (Q12809 whole entry, looked up): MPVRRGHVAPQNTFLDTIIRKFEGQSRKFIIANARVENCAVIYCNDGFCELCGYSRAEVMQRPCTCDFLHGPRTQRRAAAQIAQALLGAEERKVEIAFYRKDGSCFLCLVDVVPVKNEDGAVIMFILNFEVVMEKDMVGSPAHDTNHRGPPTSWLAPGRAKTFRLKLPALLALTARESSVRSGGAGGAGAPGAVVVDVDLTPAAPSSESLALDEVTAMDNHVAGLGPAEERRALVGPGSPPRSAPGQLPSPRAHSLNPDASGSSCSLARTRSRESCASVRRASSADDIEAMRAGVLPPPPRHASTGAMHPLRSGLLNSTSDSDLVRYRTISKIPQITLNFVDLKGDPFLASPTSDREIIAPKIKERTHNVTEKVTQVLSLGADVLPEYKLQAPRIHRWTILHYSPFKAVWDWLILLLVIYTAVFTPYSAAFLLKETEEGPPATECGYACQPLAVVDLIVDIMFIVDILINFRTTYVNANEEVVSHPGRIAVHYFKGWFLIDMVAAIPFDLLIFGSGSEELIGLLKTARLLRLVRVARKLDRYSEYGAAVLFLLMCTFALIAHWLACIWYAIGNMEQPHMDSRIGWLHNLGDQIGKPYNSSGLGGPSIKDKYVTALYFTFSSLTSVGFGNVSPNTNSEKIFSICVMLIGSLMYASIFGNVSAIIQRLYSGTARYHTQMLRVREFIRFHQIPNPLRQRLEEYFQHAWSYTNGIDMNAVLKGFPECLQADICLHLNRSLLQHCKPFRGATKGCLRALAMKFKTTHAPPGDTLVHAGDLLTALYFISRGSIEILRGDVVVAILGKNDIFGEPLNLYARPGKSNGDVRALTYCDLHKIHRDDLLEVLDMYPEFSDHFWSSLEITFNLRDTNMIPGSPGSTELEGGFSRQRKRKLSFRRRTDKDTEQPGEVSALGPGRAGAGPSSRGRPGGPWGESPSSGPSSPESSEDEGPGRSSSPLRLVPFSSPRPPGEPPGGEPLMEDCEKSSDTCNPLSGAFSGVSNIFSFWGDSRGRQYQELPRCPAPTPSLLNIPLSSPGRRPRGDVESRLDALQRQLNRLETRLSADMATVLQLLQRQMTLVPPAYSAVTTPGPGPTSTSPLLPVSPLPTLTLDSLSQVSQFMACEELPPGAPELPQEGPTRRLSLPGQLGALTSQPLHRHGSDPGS
row,Compound,"hERG current change (%, negative = inhibition) at 10uM"
1,COc1cccc(-n2c(C)nn(C)c2=O)c1,5.32%
2,CCCCCNC(=O)c1ccc2c(c1)ncn2-c1ccc(OC)cc1,-64%
3,COc1ccc(/C=C(\C#N)C(=O)NCc2cccnc2)cc1OC,-0.0191%
4,Cc1cc(C)n(-c2nnc(SCC(=O)NC3CCCC3)c3ccccc23)n1,-21.9%
5,Cc1ccc(N(CC(=O)NCc2ccc(Cl)cc2)S(C)(=O)=O)cc1,10.4%
6,O=C(c1ccc(N2CCCC2=O)cc1)N1CCN(c2ccccc2F)CC1,10.6%
7,CCc1nnc(NC(=O)C2CSC3(C)CCC(=O)N23)s1 (centres unmarked),2.35%
8,NC(=O)[C@H]1CC2(CC(c3cccc(NC(=O)[C@H]4CCC(=O)N4)c3)=NO2)CN1C(=O)c1ccccc1 (some centres unmarked),7.14%
9,COc1ccc(/C=N/c2c(-c3ccco3)nc3ccccn23)cc1OC,-25.3%
10,O=C(O)/C=C/C(=O)NNc1ccc([N+](=O)[O-])cc1,-0.0879%
11,COc1ccc(NC(=O)CN(C)C(=O)CSc2nc3ccccc3s2)cc1,-4%
12,O=C(NCc1ccccc1Cl)C1CCC(CNc2c(N3CCOCC3)c(=O)c2=O)CC1 (centres unmarked),34.2%
13,CCOC(=O)Cc1cc(-c2ccccc2)nc2ccc3ccccc3c12,23%
14,CN(C(=O)C(C)(C)C)c1ccc(OCC(=O)N2CCc3ccccc3C2)cc1,-4.12%
15,CC(=O)Nc1cccc(C(=O)Oc2cccc(C)c2)c1O,-6.85%
16,CC1(C)NC(=O)N(CC(O)CN2CCCCC2)C1=O (centres unmarked),24%
17,C=CCn1c(SCC(=O)N(CC)C2CCS(=O)(=O)C2)nnc1-c1ccccc1 (centres unmarked),-2.7%
18,CN(C/C=C/c1ccccc1[N+](=O)[O-])Cc1ccccc1,-46%
19,COC(=O)c1ccc(COc2cccc3c2OC(C)(C)C3)cc1,28.7%

row,Compound,"hERG current change (%, negative = inhibition) at 10uM"
1,O=C(NCCCn1ccnc1)c1noc2c1CCCC2,-41.8%
2,CCNc1nc(NCC)n2c(SC(C(=O)Nc3cc(C)ccc3OC)c3ccccc3)nnc2n1 (centres unmarked),-41.4%
3,O=C(O)COc1ccccc1/C=N/NC(=O)COc1ccc(-c2ccccc2)cc1,-1.47%
4,Cc1cc(=O)[nH]c(N/N=C/c2cc(C)n(CC(F)(F)F)c2C)n1,3.96%
5,COc1cc2c(cc1OC)C(COc1ccc([N+](=O)[O-])cc1)N(C(C)=O)CC2 (centres unmarked),-77.4%
6,CCN(CC)c1ccc(NC(=O)CNCc2ccccc2Cl)c(C)c1.O=C(O)C(=O)O,-12.9%
7,NC(=O)C1CCN(c2ccc(S(=O)(=O)N3CCC(Cc4ccccc4)CC3)cn2)CC1,17%
8,Cc1c(CC(=O)NCCC(=O)O)c(=O)oc2cc3oc4c(c3cc12)CCCC4,22.8%
9,COc1cccc(NC(=O)CN(C)C(=O)c2ccc(S(=O)(=O)Nc3ccccc3C)cc2)c1,-16.2%
10,Cc1cccc(N2C(=O)NC(=O)/C(=C\c3cccn3-c3ccc(Cl)cc3)C2=O)c1,6.15%
11,CCOC(=O)/C(C#N)=C\c1cc(OC)c(OC)cc1[N+](=O)[O-],16.6%
12,CCN1CCN(C(=O)c2cnn3c(C(F)F)cc(-c4ccc(C)cc4)nc23)CC1,-30.5%
13,CCSc1nc2sc3c(c2c(=O)n1CC)CCC3,13%
14,O=C(O)c1ccc2c(c1)C(=O)N(Cc1ccccc1)C2=O,-11.5%
15,CCOc1ccccc1N/C(=C(/C(Cl)=C(Cl)Cl)[N+](=O)[O-])n1cncn1,-11.7%
16,CS(=O)(=O)c1ccc(N2CCN(c3ccccn3)CC2)c([N+](=O)[O-])c1,-55%
17,O=C(NCCN1CCOCC1)C1CCN(S(=O)(=O)N2CCCC2)CC1,16.2%
18,CCC(C)NC(=O)c1csc2c1CCCCC2 (centres unmarked),18.1%
19,O=C(Cc1cccc2ccccc12)NCCc1ccccc1,5.98%

row,Compound,"hERG current change (%, negative = inhibition) at 10uM"
1,Clc1ccccc1OCCCCn1ccnc1,-2.93%
2,O=C(COc1ccc(Cl)cc1Cl)NNC(=S)NC(=O)c1ccco1,13.1%
3,COc1ccc2nc(-c3ccco3)c(-c3ccco3)nc2c1,1.82%
4,CC1CCC2(CC1)SCC(=O)N2c1ccc(F)cc1 (centres unmarked),-0.055%
5,O=C(NN=C1CCCC1)C1COc2ccccc2O1 (centres unmarked),10.6%
6,CCSC1=NCCN1C(=O)c1c(-c2ccccc2Cl)noc1C,-20.6%
7,O=C(c1ccc(Oc2cc(Cl)cc(Cl)c2)o1)N1CCCCC1,-7.03%
8,Cc1nn(-c2ccccc2)c(C)c1C(=O)OCC(N)=O,14.7%
9,Cc1ccc(C(=O)ON=C2CCN(c3ccc([N+](=O)[O-])cc3)CC2)cc1,-60.9%
10,CCCCN(CC)CCNC(=O)c1cn(C)c(=O)c2c1c1ccccc1n2C,-24.6%
11,COc1ccc(NC(=O)c2c(NC(=O)CNCc3ccco3)sc3c2CCC3)c(OC)c1,2%
12,CCC(C)NC(=O)c1ccccc1NC(=O)/C(=C/c1ccc(OC)cc1)c1ccccc1 (centres unmarked),3.99%
13,CS(=O)c1ccccc1COC(=O)Nc1cccc(Cl)c1 (centres unmarked),-27.2%
14,CCN(Cc1ccccc1)C(=O)CCc1nnc(CCCc2ccccc2)o1,21.1%
15,CCc1ccc(NC(=O)[C@H](Cc2c[nH]c3ccccc23)NC(=O)[C@@H]2Cc3ccccc3CN2)cc1,-11.3%
16,CC(C)(C)c1ccc(S(=O)(=O)Nc2ccc(Cc3ccncc3)cc2)cc1,-8.11%
17,CCCOc1ccc(Cn2c(O)cc(=O)[nH]c2=O)cc1,14.1%
18,COc1cc(NS(=O)(=O)c2ccc(NC(=S)NC(=O)C(C)(C)C)cc2)nc(OC)n1,-4.46%
